The campaign covered roughly 310,000 compounds. About 2,200 (0.71%) showed an effect of 50% or more. The effect is printed as a negative number. The list shows a part of the results.
molecular target: human ether-à-go-go-related gene (hERG) potassium channel (human, UniProt Q12809); test: primary screen, population patch clamp on CHO cells stably expressing hERG
Sequence (Q12809 whole entry, looked up): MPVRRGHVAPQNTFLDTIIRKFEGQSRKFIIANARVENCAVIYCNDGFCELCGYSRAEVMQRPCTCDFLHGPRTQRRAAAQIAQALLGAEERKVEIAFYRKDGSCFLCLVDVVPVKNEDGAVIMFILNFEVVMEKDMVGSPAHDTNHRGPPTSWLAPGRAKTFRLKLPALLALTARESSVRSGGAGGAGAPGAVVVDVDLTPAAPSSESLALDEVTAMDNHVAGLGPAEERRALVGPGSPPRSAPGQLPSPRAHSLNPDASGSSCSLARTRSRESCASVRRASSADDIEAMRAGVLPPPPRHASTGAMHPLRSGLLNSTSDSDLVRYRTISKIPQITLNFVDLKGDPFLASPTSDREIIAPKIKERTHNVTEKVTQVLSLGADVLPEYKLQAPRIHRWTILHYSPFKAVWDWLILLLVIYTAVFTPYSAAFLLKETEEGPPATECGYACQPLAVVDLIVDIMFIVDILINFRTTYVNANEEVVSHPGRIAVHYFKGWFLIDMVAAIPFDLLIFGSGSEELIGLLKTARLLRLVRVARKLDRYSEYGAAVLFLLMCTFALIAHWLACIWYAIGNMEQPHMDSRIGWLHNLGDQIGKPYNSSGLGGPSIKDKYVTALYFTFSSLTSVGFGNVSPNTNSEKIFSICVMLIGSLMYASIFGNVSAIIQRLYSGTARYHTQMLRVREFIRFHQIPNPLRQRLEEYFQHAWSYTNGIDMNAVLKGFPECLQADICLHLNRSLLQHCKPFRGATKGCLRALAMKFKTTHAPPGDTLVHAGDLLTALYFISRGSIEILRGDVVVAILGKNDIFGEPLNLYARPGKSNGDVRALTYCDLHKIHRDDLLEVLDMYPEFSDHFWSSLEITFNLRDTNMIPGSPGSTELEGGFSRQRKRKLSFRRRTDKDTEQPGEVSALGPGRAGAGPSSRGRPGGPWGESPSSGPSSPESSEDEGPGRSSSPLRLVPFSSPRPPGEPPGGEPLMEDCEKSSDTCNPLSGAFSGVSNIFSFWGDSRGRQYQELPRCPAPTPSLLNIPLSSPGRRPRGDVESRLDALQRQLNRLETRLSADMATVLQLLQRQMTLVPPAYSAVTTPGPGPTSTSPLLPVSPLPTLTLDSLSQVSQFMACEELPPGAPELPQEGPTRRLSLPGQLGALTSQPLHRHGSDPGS

Compound | hERG current change (%, negative = inhibition) at 1uM [%]
COc1cccc(NC(=O)/C=C/c2ccco2)c1 | 4.27
CC(=O)c1cccc(NS(=O)(=O)c2c(C(=O)N3CCOCC3)c(C)n(C)c2C)c1 | 8.62
Cc1cc(O)c(-c2cc(C(=O)Nc3sc4c(c3C(=O)NCc3ccco3)CCC4)[nH]n2)cc1C | 21.9
CCOC(=O)c1cnc2ccc(OCC)cc2c1NCc1ccccc1OC | 14.2
O=C(CSc1nnc(CNC(=O)c2ccco2)o1)c1ccccc1 | 10.2
COc1ccc(-c2csc(NC(=O)CSc3n[nH]c(C)n3)n2)cc1 | 16.6
O=C(Cc1n[nH]c(=O)c2ccccc12)Nc1cccc(S(=O)(=O)N2CCCCCC2)c1 | 5.7
Cc1ccc(S(=O)(=O)N2CCCN(C)CC2)cc1.Cl | 15.4
COC(=O)CC1=NN(c2ccccc2)C(=O)C1 | 9.68
CCCCOCCCn1c(N)c(C(=O)OC(C)COC)c2nc3ccccc3nc21 (stereo not drawn) | 11.6
Cc1cccc(NCCNc2cccc(C)c2)c1 | 23.2
CC(=O)Nc1ccc(C(=O)OCCCOC(=O)c2ccc(NC(C)=O)cc2)cc1 | 0.0424
COc1ccc(C2NN=C(c3c[nH]c4ccccc34)C2O)cc1 (stereo not drawn) | 12.2
COc1cc(CNCCc2c[nH]c3ccccc23)ccc1OCc1ccc(F)cc1.Cl | -4.82
C[C@@H](NC(=O)[C@@H]1Cc2ccccc2CN1C(=O)OC(C)(C)C)C(=O)NC1CCCCC1 | 1.73
CCCc1cc(=O)[nH]c(SCC(=O)N2CCc3cc(OC)c(OC)cc3C2)n1 | 12.4
CC(C)c1nnc(NC(=O)CCC(=O)NCc2ccccc2Cl)s1 | 7.3
O=C1C2CCCCN2C(=O)N1CCN1CCN(c2ccc([N+](=O)[O-])cc2)CC1 (stereo not drawn) | -69.7
COc1c(C(=O)Nc2ccc3[nH]c(=O)[nH]c3c2)cc2ccccc2c1Br | 14.8
COc1cc(CN2CCC(C(=O)N3CCN(c4ccccc4F)CC3)CC2)cc(OC)c1O.O=C(O)C(=O)O | 3.07
O=C(NCc1nc2ccccc2[nH]1)C1=C[C@@H](C2CCCCC2)C[C@@H](OCc2ccc(CO)cc2)O1 | 15.6
CC(=Nc1ccc(Br)cc1)c1sc2ccccc2c1O | 6.54

Compound | hERG current change (%, negative = inhibition) at 1uM [%]
CCN(CC(=O)Nc1ccc(NC(C)=O)cc1)C(=O)c1cccc2ccccc12 | 8.51
CC(Sc1nnnn1-c1ccc(Cl)cc1)C(=O)NCC(=O)Nc1ccc(F)c(F)c1F (stereo not drawn) | 17.5
CCOc1ccc(NC(=O)/C(C#N)=C/c2ccc(N3CCCC3)c(C)c2)cc1 | 5.17
CCn1c(C)cc(/C=C2/NC(=O)N(CC(=O)Nc3cccc(C)c3)C2=O)c1C | 8.36
COCCn1cc(C(=O)NCc2cccs2)c2c3ccccc3n(C)c2c1=O | 10
CN(C)CCCN(C(=O)c1ccc(S(=O)(=O)N2CCCC2)cc1)c1nc2c(F)cc(F)cc2s1.Cl | 5.61
COc1ccc(NC2CC(=O)N(CCc3ccccc3)C2=O)cc1 (stereo not drawn) | 4.51
CSc1ccc(CCNC(=O)c2cc(-c3ccccc3)c(N3CCOCC3)s2)cc1 | 6.2
CC(=O)NC(Cc1ccccc1)C(=O)OCC(=O)c1ccccc1 (stereo not drawn) | 4.85
Cc1nc2c(sc(=S)n2Cc2ccco2)c(=O)n1CC(=O)Nc1ccccc1Cl | 5.26
C[C@]12CC[C@H](O)C[C@H]1CC[C@@H]1C2CC[C@]2(C)[C@@H](C3=CC(=O)OC3)[C@@H](O)C[C@]12O (stereo partly drawn) | 13.5
CC(=O)Cc1nsc(NC(=O)c2cc(-c3ccc(Cl)c(Cl)c3)oc2C)n1 | 12.2
COc1ccc(/C=N/NC(=O)c2ccncc2)cc1CSc1nc2ccccc2s1 | 15.2
Cc1[nH]n(-c2ccccc2)c(=O)c1C(=O)c1ccc(Cl)cc1 | 15.9
O=C(NC1CC1)C1=C[C@@H](c2ccccc2)C[C@@H](OCc2ccc(CO)cc2)O1 | 3.99
CC1=C(C#N)C(c2ccc(O)cc2)C(C#N)=C(C)N1 | 9.37
Cc1cc(NC(=O)CSc2nnc(-c3ccco3)n2C)no1 | 11.8
O=S(=O)(Nc1c(F)cccc1F)c1ccc(Cl)nc1 | 26.5
CCOC(=O)Cc1nnc(Nc2cc(C)ccc2C)c2ccccc12 | -1.18
COC(=O)C(O)(c1ccc(N=Cc2ccccc2O)c(C)c1)C(F)(F)F (stereo not drawn) | 12.2
O=C(O)c1cccc(Nc2nc(-c3cc4ccccc4oc3=O)cs2)c1 | 13.5
CCn1c(=NC(=O)C2COc3ccccc3O2)sc2c(C)ccc(OC)c21 (stereo not drawn) | 11

Compound | hERG current change (%, negative = inhibition) at 1uM [%]
Clc1ncccc1-c1nc2ccccc2n1Cc1ccccc1 | -4.59
CC(C)(C)Cc1nnc(NC(=O)c2ccc3c(c2)OCO3)s1 | 19.8
COc1ccc(Oc2ncnc3c2ncn3Cc2ccccc2)cc1 | -0.583
COc1ccc(S(=O)(=O)N2CCC3(CC2)CC(=O)c2ccccc2O3)cc1 | -10.6
CCOC(=O)C1CCN(C(C(=O)NC2CCCC2)c2ccc(C)cc2)CC1 (stereo not drawn) | 6.01
CCc1ccccc1N(C(=O)c1cccs1)C1C=CS(=O)(=O)C1 (stereo not drawn) | -4.94
CC(=O)Nc1ccc(NC(=O)c2ccccc2CC[N+](=O)[O-])cc1 | 8.71
Cc1nn(C)c(Cl)c1NC(=O)OCc1ccc(F)cc1 | 9.59
CSc1nnc([C@@H](N)Cc2ccccc2)o1.Cl | -11.6
O=[N+]([O-])c1cccc(/C=N/Nc2ccccn2)c1 | 14.2
CC(C)C(=O)Nc1ccc(NC(=S)NC(=O)c2ccccc2F)cc1 | 5.21
CN(C)S(=O)(=O)c1cccc(NC(=O)CSc2nc3ccccc3n2-c2ccccc2)c1 | 10.5
Cc1ccc(S(=O)(=O)NC2CCCCC2)c(C)c1NS(C)(=O)=O | 11.8
COCCNC(=S)NNc1ccccc1[N+](=O)[O-] | 11.6
Cc1ccc(C)c(C(C)NC(=O)C2CCCO2)c1 (stereo not drawn) | 20.6
C/C(CC(=O)Nc1ccc(C)c(Cl)c1)=N\NC(=O)c1cccc(O)c1 | 17.8
CCOc1ccc(C(=O)NN2C(=O)C3C4C=CC(O4)C3C2=O)cc1 (stereo not drawn) | 4.94
O=C(N[C@H](C(=O)O)c1ccccc1)C1CCC(Cn2cnc3ccccc3c2=O)CC1 (stereo partly drawn) | 10.6
CSc1nc(N)n2nc(-c3ccccc3)cc2n1 | 10.8
CCOc1ccccc1NC(=O)c1cc(SC)ccc1Cl | 29.3
CCOC(=O)Cc1nn(Cc2ccccc2)c(=O)c2ccccc12 | 5.61
Cc1ccc(C(=O)OCC(=O)N(C)C2CCS(=O)(=O)C2)cc1[N+](=O)[O-] (stereo not drawn) | 13.7

Compound | hERG current change (%, negative = inhibition) at 1uM [%]
COc1ccc(/C=N\NC(=O)c2ccccc2Cl)cc1COc1c(F)c(F)c(F)c(F)c1F | 8.28
O=C(NNC(=O)c1ccc(F)cc1)c1ccncc1 | 13.1
COc1ccc(CN(C)C(=O)Cc2c[nH]c3ccccc23)cc1 | 15.6
CCCCSc1nnc(-c2cc3c(C(F)(F)F)nn(C)c3s2)n1C | 10.1
C/C(=N\NC(=O)c1ccncc1)c1c(O)n(-c2ccccc2)c(=O)[nH]c1=O | 7.14
O=C(c1cccc(S(=O)(=O)Nc2ccccc2Cl)c1)N1CCC1 | 12.9
CCn1c(SCC(=O)Nc2cc(C)on2)nnc1-c1cccs1 | 4.31
N#CCCn1nnc(-c2ccccc2F)n1 | 23
CCOc1cc2[nH]c(=O)n(Cc3cccc(OC)c3)c(=O)c2cc1OCC | 6.96
CN(C)c1ccc(/C=N/OC(=O)Nc2ccccc2Cl)cc1 | -5.54
O=C(NCC1CCCO1)c1ccc(NS(=O)(=O)c2ccccc2)cc1 (stereo not drawn) | 14.8
CCCCc1nc(Cl)c(C#N)c2c1CSC(C)(C)C2 | 3.02
O=c1c2ccccc2c(-c2ccccc2)nn1-c1ccccc1 | 12.3
CCc1nn(C(C)C(=O)NCc2cccc(Cl)c2)c(=O)c2cc3occc3n12 (stereo not drawn) | 4.62
O=C(C[C@H]1C(=O)N(Cc2ccccc2)C[C@@H]1Cc1ccccc1)Nc1ccccc1 | 9.99
CCOC(=O)C1CCN(C(=O)c2cccc(S(=O)(=O)N(C)C3CCCCC3)c2)CC1 | -0.558
O=C(Nc1cccc(Cl)c1)c1nc[nH]c1C(=O)N1CCN(c2ccccc2)CC1 | 8.23
CCOP(=O)(c1ccc(N(C)C)cc1)C(O)c1cc(OC)c(OC)c(OC)c1 (stereo not drawn) | 2.97
Cc1ccccc1NC(=O)Cc1nc(COC(=O)CCC(=O)c2ccccc2)cs1 | 5.39
COc1c(/C=N/NS(=O)(=O)c2ccc(C)cc2)c(CCN(C)C(C)=O)cc2c1OCO2 | 0.0332
Cc1cccc(-c2nnc(SCC(=O)C(C)(C)C)n2C)c1 | 1.99

Reference: publication PMC4336329 (PLoS ONE, 2015)
